54 sequences from publication PMC7819943, “Rice protein-binding microarrays: a tool to detect cis-acting elements near promoter regions in rice” can be followed below.

Some of the results follow.

The test deals with T1, OsWOX13 (Oryza sativa, UniProt Q5QMM3 1-267).
T1 sequence: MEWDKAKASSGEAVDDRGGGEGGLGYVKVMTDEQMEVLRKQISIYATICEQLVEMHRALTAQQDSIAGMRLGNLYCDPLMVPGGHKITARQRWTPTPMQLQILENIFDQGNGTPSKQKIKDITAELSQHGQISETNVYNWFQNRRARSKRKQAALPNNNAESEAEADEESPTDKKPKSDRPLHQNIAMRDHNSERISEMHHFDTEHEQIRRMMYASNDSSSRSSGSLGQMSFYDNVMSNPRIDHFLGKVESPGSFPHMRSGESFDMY
The test is described as follows: protein-binding microarray (RPBM); PBS, 2% BSA, 51.3 ng/ul salmon testes DNA, 50 uM zinc acetate, 200 nM TF, 25 C, 1 h; high values mean tight binding. As to conditions: protein: recombinant; tags: N-terminal polyhistidine and DsRed monomer fusion (pET32a); label: CyDye5-dUTP incorporated in the synthesized complementary strand; 3' TTTTT single-stranded linker to array surface; dsDNA, one strand shown. In a few lines:
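Per-feature fluorescence intensity (arbitrary units), read on an Axon 4000B scanner, is the binding signal. Transcription factors carrying an N-terminal polyhistidine tag and DsRed fusion were expressed in E. coli BL21-CodonPlus and purified on Ni–NTA. A custom Agilent array, made double-stranded by primer extension with Cy5-dUTP and blocked with 2% BSA, was incubated with 200 nM protein in PBS, 2% BSA, salmon testes DNA and 50 µM zinc acetate at 25 °C for 1 h and then washed.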
Turning to “ATAATTCACTAATTGAATTTACATAACGGATTTCTAAAGACGGAGTCACCTAGTGCAG”, the binding signal was 33700 fluorescence intensity (a.u.). The same measure for “GTGCATAAATTTATTAAAATAGAAAATTAATGCAGTGCCACGGAGTCACCTAGTGCAG”: 17100 fluorescence intensity (a.u.).

Regarding “ATGAATAAAATGATATAATTGAATCGTGGATTGGATAAACCGGAGTCACCTAGTGCAG”, the binding signal is 19000 fluorescence intensity (a.u.).

Take “ATCCTGCATTCATTACAGTTAGATTGCAAACTAGATGCATCGGAGTCACCTAGTGCAG”: the binding signal was 3670 fluorescence intensity (a.u.). The result for “TTATGTGATCAATCATAAAATTCAGATATAAGATACCATACGGAGTCACCTAGTGCAG” reads 10000 fluorescence intensity (a.u.); that for “CCACAGCAGACTGGCTAGTAATTACTACTCCCTCCGTTTCCGGAGTCACCTAGTGCAG”, 8200 fluorescence intensity (a.u.); that for “GGCAGATACAAAGACAATTAATAAACAGACTTTTAAGTTGCGGAGTCACCTAGTGCAG”, 3220 fluorescence intensity (a.u.). The result for “GATGATGTAATTGAAATTGTAGTAGTGCATATAATACTCCCGGAGTCACCTAGTGCAG” reads 42300 fluorescence intensity (a.u.); that for “TTATATAAATAGGCTATTAGATTATCTATAGATAATTTAGCGGAGTCACCTAGTGCAG”, 4900 fluorescence intensity (a.u.). Consider “TTATTCCTGAGTAATTTAAACTGGGAGGCCCAGCTAACTGCGGAGTCACCTAGTGCAG”, for which the binding signal is 3200 fluorescence intensity (a.u.). The same measure for “GTCCAATCACTTACGTTTCACGTAAGCGTCCGATCTGGCACGGAGTCACCTAGTGCAG”: 11100 fluorescence intensity (a.u.); for “AACGAGAGTAGCTCAATTGATTATTGTTACTCACGATAGACGGAGTCACCTAGTGCAG”: 3430 fluorescence intensity (a.u.); for “TCCCATACAAATGGATTGTTCAATCATATAATTGCTGCATCGGAGTCACCTAGTGCAG”: 9900 fluorescence intensity (a.u.). The result for “TTGTAATGTAGAATATTAATTAGATATAGTTAATCTCTAACGGAGTCACCTAGTGCAG” reads 4860 fluorescence intensity (a.u.). The result for “ACCAAACTTTCAAATTTAAGTGAACTAAATACACCCTTGACGGAGTCACCTAGTGCAG” reads 3560 fluorescence intensity (a.u.); that for “TTTAAATGAAATGAGTTGCATATCACTATAAGAGTTTGTTCGGAGTCACCTAGTGCAG”, 5620 fluorescence intensity (a.u.). In the case of “ATGATATAAATGATGAGAGAGAAGAGCAGCGGGTTACAGACGGAGTCACCTAGTGCAG”, the binding signal was 3950 fluorescence intensity (a.u.). As for “AAGAATTAATAGACAAAGTAATTTTATATTTCTTATGGCTCGGAGTCACCTAGTGCAG”, the binding signal was 28100 fluorescence intensity (a.u.). Take “CAATGATTGGACTAAAGAAAATGCTAATATTAATGGTATGCGGAGTCACCTAGTGCAG”: the binding signal is 52300 fluorescence intensity (a.u.). The result for “CCATGATTAAATAATGTTGGTTGAACGTTAATGCATGTACCGGAGTCACCTAGTGCAG” reads 40000 fluorescence intensity (a.u.); that for “CTGGAGCTAATTAATGGTGCATTTTGCACGGTCTTTGTGCCGGAGTCACCTAGTGCAG”, 5940 fluorescence intensity (a.u.). The same measure for “GTGCCGTTAGTGCTAATCAAGGCAATCAATAAAAGATCAGCGGAGTCACCTAGTGCAG”: 27400 fluorescence intensity (a.u.); for “TCAATCCATCAGCATTAGCAATTGCCTATAACATGTCCAGCGGAGTCACCTAGTGCAG”: 3310 fluorescence intensity (a.u.); for “TTTTAATGTTCGAAAATTTAATTATTCACCTTTTCAAGTTCGGAGTCACCTAGTGCAG”: 3390 fluorescence intensity (a.u.). For the sequence “AAATATATTAATTAGTGGTAATATATCTTGTGAGATGCATCGGAGTCACCTAGTGCAG”, the binding signal was 15700 fluorescence intensity (a.u.). The same measure for “CCACTTGACAGCCATTATAGCTAGCATGGTAGAAGTAGAACGGAGTCACCTAGTGCAG”: 5400 fluorescence intensity (a.u.). The result for “TGTATTGAATTATTAATTTGGTTTTCTATCTCATCAAGGGCGGAGTCACCTAGTGCAG” reads 11600 fluorescence intensity (a.u.); that for “ATTTAATTTATTATTAAATATACTTTTAGCATGACTTATTCGGAGTCACCTAGTGCAG”, 17000 fluorescence intensity (a.u.).

Consider “ATGTGTTGATTTGTGTGTATGACTCAGCTTACTACTACATCGGAGTCACCTAGTGCAG”, for which the binding signal is 19400 fluorescence intensity (a.u.). The same measure for “AGATCTAATTTACACTGGTTTTAATAGTTGATGGATGCGACGGAGTCACCTAGTGCAG”: 9620 fluorescence intensity (a.u.); for “TTTATAATTGACTCCAAACCAAATACAACTTGTTTGTTCTCGGAGTCACCTAGTGCAG”: 33500 fluorescence intensity (a.u.). The result for “TTCAACTTTGCATTTTCTGATTAGCACAACTGCGTTTCTTCGGAGTCACCTAGTGCAG” reads 3920 fluorescence intensity (a.u.).

“AACAATTAGATAGGCTACCCCAAATATTGTACTGGTGTGACGGAGTCACCTAGTGCAG”: the binding signal was 6050 fluorescence intensity (a.u.). The same measure for “GAGGGGATGTGTCAATTTGGGACCTAAATGATACACTTTGCGGAGTCACCTAGTGCAG”: 7440 fluorescence intensity (a.u.); for “TGCTTTGATTTTACGTCACATACACATGGTGATGCTTCAACGGAGTCACCTAGTGCAG”: 6250 fluorescence intensity (a.u.). As for “GATAACGGAAATCAATCAACCGCTCCCTCGCTCACGGGTGCGGAGTCACCTAGTGCAG”, the binding signal was 22000 fluorescence intensity (a.u.).

As to “ATCCTAATTCCTCAAATTATCCACTATCCGGGATTGTCACCGGAGTCACCTAGTGCAG”, the binding signal is 13700 fluorescence intensity (a.u.). The result for “GTCTAACTATATTGCAATTGATATAACTGCAAAATGTCCTCGGAGTCACCTAGTGCAG” reads 19900 fluorescence intensity (a.u.); that for “TTGTTGATTTGTACCCAGTGATACAAGGCTAATTAAACTTCGGAGTCACCTAGTGCAG”, 20700 fluorescence intensity (a.u.); that for “GACTCTATCTAGAAATTAAATTTAATCAACACATGTAAGTCGGAGTCACCTAGTGCAG”, 12800 fluorescence intensity (a.u.).

As for “CACTGACAGGTAGCTAGCATTATTTCAGATGATATATTCCCGGAGTCACCTAGTGCAG”, the binding signal was 8350 fluorescence intensity (a.u.). With “GCTATAGATAAATTGAAGCTAGTAGTTGGCCATACTGTTGCGGAGTCACCTAGTGCAG”, the binding signal was 9790 fluorescence intensity (a.u.). The same measure for “CCATTGATTATAATTAAAGACTGTTAGGCAATTGACACAACGGAGTCACCTAGTGCAG”: 54000 fluorescence intensity (a.u.); for “AGATAAATATTTTATAAATTATTTATAGTCAAAGATTTGACGGAGTCACCTAGTGCAG”: 8270 fluorescence intensity (a.u.); for “GGTAATAAACTAAATGTATCCATATGTTTATCAATTTTACCGGAGTCACCTAGTGCAG”: 4260 fluorescence intensity (a.u.). The result for “TAGGCTCAATCATTCAATCGATTCACTATAGTGAGTTAGTCGGAGTCACCTAGTGCAG” reads 11900 fluorescence intensity (a.u.). The same measure for “TGGTATGATTTATTTTGGCTACAGTCTAAACAGACCCGAACGGAGTCACCTAGTGCAG”: 9110 fluorescence intensity (a.u.). For the sequence “ATTATTATAAATTATTTCCTCCGTTTCACAATGTAAGTCACGGAGTCACCTAGTGCAG”, the binding signal is 5530 fluorescence intensity (a.u.).

With “ATATCTGTCACATTTTGTTCTCTGAAATTAACCTGAATATCGGAGTCACCTAGTGCAG”, the binding signal was 3340 fluorescence intensity (a.u.). The same measure for “CCGCACAAATTAAGTTAAGTAGTTGACAACTAAGTCAAGACGGAGTCACCTAGTGCAG”: 7560 fluorescence intensity (a.u.). For the sequence “TAGCTGATTAATTGATTATAACCCATAATAATAAATTATACGGAGTCACCTAGTGCAG”, the binding signal is 19400 fluorescence intensity (a.u.). The result for “CCTCGCAATTAATAAGATCCGTAAACATCATCTTCACCGGCGGAGTCACCTAGTGCAG” reads 4160 fluorescence intensity (a.u.); that for “CACACTATTGATATATAATTTCTCATGTTATATACACATTCGGAGTCACCTAGTGCAG”, 7540 fluorescence intensity (a.u.). In the case of “GTTCTTCATTGACAGATGCAAGGCTCCACCAGTCCACCTCCGGAGTCACCTAGTGCAG”, the binding signal was 6170 fluorescence intensity (a.u.).
